Out of some 310,000 compounds screened, about 2,200 (0.71%) showed an effect of 50% or more. Effects have a minus sign here. Some of the results follow.

human ether-à-go-go-related gene (hERG) potassium channel, sequence (Q12809 whole entry, looked up): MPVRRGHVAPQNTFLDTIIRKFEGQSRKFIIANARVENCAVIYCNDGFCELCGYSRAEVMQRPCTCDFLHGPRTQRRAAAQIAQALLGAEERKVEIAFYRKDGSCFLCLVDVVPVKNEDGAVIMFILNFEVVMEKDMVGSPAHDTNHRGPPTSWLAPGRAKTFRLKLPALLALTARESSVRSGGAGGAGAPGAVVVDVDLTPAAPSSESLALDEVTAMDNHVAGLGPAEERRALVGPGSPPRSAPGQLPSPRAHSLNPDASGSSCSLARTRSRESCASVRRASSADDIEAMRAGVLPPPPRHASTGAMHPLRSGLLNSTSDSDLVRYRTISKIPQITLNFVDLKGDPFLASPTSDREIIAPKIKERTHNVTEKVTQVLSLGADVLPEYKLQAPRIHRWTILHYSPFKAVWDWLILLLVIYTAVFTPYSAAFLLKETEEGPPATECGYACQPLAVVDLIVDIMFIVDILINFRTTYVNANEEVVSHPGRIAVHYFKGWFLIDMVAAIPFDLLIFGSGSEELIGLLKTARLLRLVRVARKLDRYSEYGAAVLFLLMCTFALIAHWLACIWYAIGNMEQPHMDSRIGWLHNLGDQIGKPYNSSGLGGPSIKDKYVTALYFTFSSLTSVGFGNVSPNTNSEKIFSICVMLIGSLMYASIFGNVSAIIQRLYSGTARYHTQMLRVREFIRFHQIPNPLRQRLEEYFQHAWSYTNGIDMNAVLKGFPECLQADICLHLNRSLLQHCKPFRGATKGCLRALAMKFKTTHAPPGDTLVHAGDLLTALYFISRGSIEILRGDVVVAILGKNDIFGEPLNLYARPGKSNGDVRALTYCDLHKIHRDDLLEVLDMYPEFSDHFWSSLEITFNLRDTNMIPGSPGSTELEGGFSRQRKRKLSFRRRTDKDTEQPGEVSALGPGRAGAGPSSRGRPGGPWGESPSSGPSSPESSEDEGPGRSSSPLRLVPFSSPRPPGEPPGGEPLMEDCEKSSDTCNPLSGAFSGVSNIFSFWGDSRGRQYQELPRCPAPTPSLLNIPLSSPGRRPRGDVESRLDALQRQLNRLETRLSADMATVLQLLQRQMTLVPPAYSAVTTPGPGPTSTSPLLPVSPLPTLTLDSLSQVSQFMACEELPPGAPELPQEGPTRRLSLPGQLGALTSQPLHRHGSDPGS

The assay addresses human ether-à-go-go-related gene (hERG) potassium channel (human, UniProt Q12809). The experiment in a line: primary screen, population patch clamp on CHO cells stably expressing hERG.
In the case of `CCOC(=O)c1nc(Nc2ccc(C(C)=O)cc2)c2ccccc2n1`, the “hERG current change (%, negative = inhibition) at 1uM” value stood at 10.8%. As for `COc1cc(C(=O)N/N=C/c2ccc(OC(=O)N3CCOCC3)cc2)cc(OC)c1OC`, the “hERG current change (%, negative = inhibition) at 1uM” value is reported as -2.8%. To `S=C(NCCN1CCCCC1)Nc1ccc(Br)cc1` belongs -31.2%. Next, `CCOc1ccc(CC(=O)NC2CC(C)(C)N(C)C(C)(C)C2)cc1OCC`: 8.83%; `COC(=O)c1[nH]c2ccc(C)cc2c1NC(=O)c1ccccc1[N+](=O)[O-]`: -1.11%; `NNC(=O)c1cccn(Cc2ccc(Cl)cc2Cl)c1=O`: 10.9%. Next, `COc1ccc(/C=N/Nc2nnc(Cc3ccc(OC)c(OC)c3)c(=O)[nH]2)cc1OC`: 10.5%; `N#Cc1ccc(CSc2nnc3[nH]c(=O)cc(N)n23)cc1`: 5.58%. `Cc1nn(-c2ccccc2)cc1C(c1c(N)[nH]c(=S)[nH]c1=O)c1c(N)[nH]c(=S)[nH]c1=O`: the “hERG current change (%, negative = inhibition) at 1uM” value turned out to be 9.75%.

Regarding `CCCCc1c(C)nc2c(OC)cccc2c1SCC(=O)O`, the “hERG current change (%, negative = inhibition) at 1uM” value was 6.75%. As for `O=C(CN1CCN(c2ccc(C(F)(F)F)cn2)CC1)Nc1ccc2c(c1)OCO2`, the “hERG current change (%, negative = inhibition) at 1uM” value stood at 7.69%. To `COCc1cc(/C=N\NC(=O)COc2ccc(Cl)cc2)ccc1OC` belongs 14.7%; to `Cc1ccc(OCc2nnc(SCC(=O)c3cccc([N+](=O)[O-])c3)n2C)cc1`, -1.17%. Next, `COc1ccccc1N=c1sc2ccccc2n1C`: -6.03%. To `CC1=C(C(=O)NC2CC(C)(C)Cc3c2cnn3-c2cccc(F)c2)OCCO1` (stereo not shown) belongs -3.59%. As to `COc1ccc(C(C)=O)cc1COC(=O)c1ccc2c(c1)OCO2`, the “hERG current change (%, negative = inhibition) at 1uM” value stood at 21.5%. Next, `O=C(c1n[nH]c2ccccc12)N1CCOCC1`: 13.4%; `CC(C)c1nnc(NC(=O)C2CCN(S(=O)(=O)c3ccc(-n4cnnn4)cc3)CC2)s1`: 6.23%.

As to `Cc1ccc(S(=O)(=O)N2CCC(C(N)=O)CC2)c(C)c1C`, the “hERG current change (%, negative = inhibition) at 1uM” value was -4.89%.

As for `CC(C)(C)n1nc2c(c1NC(=O)c1cc3ccccc3o1)CSC2`, the “hERG current change (%, negative = inhibition) at 1uM” value is given as 8.58%. As to `Cc1ccc2nc(SC(C)C(=O)N3CC(C)OC(C)C3)[nH]c2c1` (stereo not shown), the “hERG current change (%, negative = inhibition) at 1uM” value worked out at 11.6%. To `Cc1ccc(NC(=O)c2ccc3c(c2)OCO3)cc1Cl` belongs 5.25%; to `CCN1CCN(C(=O)CCCn2c(C)c3cnn(-c4ccccc4)c(=O)c3c2C)CC1`, 13.8%. Next, `CN1CCN(c2nnc(-c3cccs3)c3ccccc23)CC1`: -4.7%. For `CC(=O)c1cccc(NC(=O)Cn2nc(-c3ccccc3Cl)ccc2=O)c1`, the “hERG current change (%, negative = inhibition) at 1uM” value was -1.66%. Next, `CCOCCCNC(=O)C(c1ccccc1)N(Cc1ccc2c(c1)OCO2)C(=O)c1ccccc1O` (stereo not shown): 15.2%; `O=C(Nc1cccc(F)c1)c1ccc2c(c1)OCO2`: 11%. To `Cc1[nH]c(-c2ccc(F)cc2)cc1C(=O)N1CCN(c2ccccc2F)CC1` belongs -25%; to `CSc1cccc(NC(=O)c2sc3nc4n(c(=O)c3c2C)CCC4)c1`, 15.6%; to `Cc1ccc(-c2csc(=Nc3cccnc3)n2CCCn2ccnc2)cc1C`, -22.2%. To `O=C1CCCC2=C1C(c1ccc(Br)cc1)c1c([nH]c(=S)[nH]c1=O)N2` (stereo not shown) belongs 6.34%; to `Cc1cnc(NC(=O)CSc2nnc(-c3ccccc3)n2Cc2ccccc2)s1`, 6.59%; to `Cc1ccnc(NS(=O)(=O)c2ccc(NC(=O)CCS(=O)(=O)c3ccccc3)cc2)n1`, 20.7%. Turning to `Cc1ccc(N2C(=O)CSC2c2ccc3c(c2)OCO3)cc1` (stereo not shown), the “hERG current change (%, negative = inhibition) at 1uM” value was found to be 13.2%. Regarding `O=C(Nc1ccccc1C(=O)NC(Cc1c[nH]c2ccccc12)C(=O)O)c1ccccc1` (stereo not shown), the “hERG current change (%, negative = inhibition) at 1uM” value is listed as 9.02%. To `Clc1ccc2nc(-c3ccncc3)cc(-c3ccccc3)c2c1` belongs 19.6%.

For the molecule `Cc1ccc(OCCCCCN2CCOCC2)c(Cl)c1`, the “hERG current change (%, negative = inhibition) at 1uM” value amounted to 5.12%.

With `O=C(NC(=S)Nc1ccc(Br)c(Cl)c1)C1CC1`, the “hERG current change (%, negative = inhibition) at 1uM” value was determined as 13.7%. As to `Fc1ccc(-c2csc3[n+]2CCS3)cc1.[Br-]`, the “hERG current change (%, negative = inhibition) at 1uM” value worked out at 7.76%. Take `Cc1ccc(Cl)cc1N1CCN(C(=O)C2CCN(S(C)(=O)=O)CC2)CC1`: the “hERG current change (%, negative = inhibition) at 1uM” value is 4.38%. As for `CC(=O)Nc1nc2ccccc2n1CCN1CCOCC1`, the “hERG current change (%, negative = inhibition) at 1uM” value was 7.92%.

Take `NC(=O)NCC12CC3CC(CC(C3)C1)C2`: the “hERG current change (%, negative = inhibition) at 1uM” value stood at 16.8%. To `Cc1ccc(C2N(c3ccccc3)C(=S)N3CCCN23)cc1` (stereo not shown) belongs 14.9%. Consider `COc1ccc(OC)c(N(C)S(=O)(=O)c2ccc3c(c2)N(C(C)=O)CCO3)c1`, for which the “hERG current change (%, negative = inhibition) at 1uM” value is reported as 6.97%. For the molecule `O=C(OCC(=O)N(Cc1ccccc1)Cc1ccccc1)c1ccccc1O`, the “hERG current change (%, negative = inhibition) at 1uM” value was found to be 9.63%. To `COc1ccc(OC)c(N=c2oc3c(OC)cccc3cc2C(=O)NCc2ccco2)c1` belongs 8.21%; to `CC(C)(C)NC(=O)CN(C(=O)CS(=O)CC(=O)Nc1ccc(F)cc1)c1ccc(Cl)cc1` (stereo not shown), 12.9%; to `COc1cccc(CN(C(=O)c2ccc([N+](=O)[O-])cc2)C2CCS(=O)(=O)C2)c1` (stereo not shown), -16%.

Regarding `O=[N+]([O-])c1cccc2ccc(/C=C/c3ccc(Cl)cc3)nc12`, the “hERG current change (%, negative = inhibition) at 1uM” value worked out at 1.88%.

Turning to `COc1cccc(-c2nnn(CC(=O)Nc3cc(OC)c(NC(=O)c4ccco4)cc3OC)n2)c1`, the “hERG current change (%, negative = inhibition) at 1uM” value is given as -4.1%. Next, `COc1cnc(-c2ccccn2)nc1Sc1ccc(Cl)cc1`: -0.893%; `CC(=O)c1c(N)c(C#N)c(C)n1-c1ccc(Br)cc1`: 14.2%; `CC(OC(=O)c1cc(=O)[nH]c2ccccc12)C(=O)NCc1ccccc1` (stereo not shown): 15.9%. To `CCOC(=O)Cn1c(=O)c(F)cn(Cc2ccc(OC)c([N+](=O)[O-])c2)c1=O` belongs 11.4%; to `Cc1ccc(NC(=O)COc2ccccc2C(=O)Nc2ccccc2)cc1Cl`, 6.93%.

Regarding `CSc1n[nH]c(=O)n1C1CCCCC1`, the “hERG current change (%, negative = inhibition) at 1uM” value is reported as 11.4%. Next, `COc1ccc(NC(=O)N2CCCC(CCC(=O)N(C)CCc3ccccn3)C2)cc1` (stereo not shown): 6.05%. Next, `CCC(=O)Nn1c(C2CCC2)nc2ccccc2c1=O`: 14.3%; `COc1ccc(CCNC(=S)Nc2ccccc2C)cc1`: 10.5%; `Cc1ccnc2nc(C(=O)NCc3cccs3)nn12`: 7.81%. Consider `CSc1nnc(-c2ccco2)n1-c1ccccc1`, for which the “hERG current change (%, negative = inhibition) at 1uM” value is given as 10.6%. To `O=C(CCN1CCCCC1)Nc1ccccc1` belongs 10.5%.

On to `O=C(CN1C(=O)/C(=C/c2ccc(F)cc2)SC1=S)NC1CCS(=O)(=O)C1` (stereo not shown), for which the “hERG current change (%, negative = inhibition) at 1uM” value worked out at 20%. To `Cc1ccc(SCCC(=O)N/N=C/c2ccncc2)cc1` belongs 9.5%; to `CN1CCN(S(=O)(=O)c2cccc(C(=O)Nc3ccccc3N3CCCCC3)c2)CC1`, 20.4%; to `CC(OC(=O)Cc1ccc(Br)cc1)C(=O)NC1CCCCC1C` (stereo not shown), 2.35%.

For `NC(=O)CCn1c2ccccc2c2ccccc21`, the “hERG current change (%, negative = inhibition) at 1uM” value was 3.45%. To `CCc1nc(SCC(=O)NC2CCCC2)c2c(=O)n(C)c(=O)n(C)c2n1` belongs 10.1%; to `Cc1ccc(NC(=O)C2Cc3ccccc3CN2C(=O)c2ccccc2)cc1Cl` (stereo not shown), 3.9%. To `CCCCN1C(=O)CC(Sc2ccccc2C(=O)O)C1=O` (stereo not shown) belongs -1.56%. `CCOC(=O)C1=C(c2ccccc2)OC(N)=C(C#N)C1c1cccnc1` (stereo not shown): the “hERG current change (%, negative = inhibition) at 1uM” value is reported as 6.5%. Next, `CCOc1ccccc1OCCCC(=O)NC1=NCCS1`: 11.8%; `COc1ccc(-n2ccnc2SCC(=O)NO)cc1`: 11.1%; `COc1ccc(NC(=O)C2CCCN(S(=O)(=O)c3c(C)[nH]c(=O)[nH]c3=O)C2)cc1` (stereo not shown): -4.64%.

As for `Cc1ccc(Cn2nnc3c(=O)[nH]c(C4CCCN(S(=O)(=O)c5ccccc5)C4)nc32)cc1` (stereo not shown), the “hERG current change (%, negative = inhibition) at 1uM” value came to 9.16%. Next, `Nc1nc(SCCC(F)=C(F)F)n[nH]1`: 4.82%.

Turning to `CCOc1ccc(NC(=O)C2CCN(S(=O)(=O)c3cccs3)CC2)cc1`, the “hERG current change (%, negative = inhibition) at 1uM” value stood at 12.6%. To `CCc1cccc(CC)c1N(COC)C(=O)Cn1c(C(C)O)nc2ccccc21` (stereo not shown) belongs -4.09%; to `CCCNC(=O)CC1Sc2ccccc2NC1=O` (stereo not shown), 7.86%. To `O=C(/C=C/c1ccc([N+](=O)[O-])cc1)c1cccnc1` belongs -13.6%. To `COCCN(C(=O)c1csnn1)C(C(=O)NC1CCCCC1)c1ccccc1F` (stereo not shown) belongs 14.3%; to `Cc1ccc(-c2nc3ncccc3o2)cc1NC(=O)CC(C)C`, 3.93%.

As for `COCCC(=O)N1CCC(Oc2ccc(C(=O)N3CCCC(CCCO)C3)cc2)CC1` (stereo not shown), the “hERG current change (%, negative = inhibition) at 1uM” value came to 14%. With `Cc1cccc(C)c1NC(=O)N1CCC(c2nc3ccccc3o2)CC1`, the “hERG current change (%, negative = inhibition) at 1uM” value is recorded as -1.11%. To `CCOC(=O)c1c(C)c(C(=O)N2CCN(c3cccc(Cl)c3)CC2)c(C)n1C` belongs 0.397%; to `CCOc1ccc(S(=O)(=O)N(CC(=O)NCc2ccncc2)c2ccc(C)cc2)cc1`, -14.6%; to `O=C(Cn1c(=O)oc2ccccc21)Nc1nnc(N2CCCCCC2)s1`, 1.9%. Next, `CN1CN(C)c2cccc3cccc1c23`: 12.8%; `CCN(C1CCCCC1)S(=O)(=O)c1ccc(OC)c(C)c1`: 13.2%. As for `CCC1CCCCN1C(=O)N[C@@H](CCSC)C(=O)OC` (stereo partly shown), the “hERG current change (%, negative = inhibition) at 1uM” value is listed as 2.58%.

In the case of `CC(/C=N\Nc1nnc2c(n1)[nH]c1c(C)cccc12)=C\c1ccco1`, the “hERG current change (%, negative = inhibition) at 1uM” value is on record as 10%.

The record behind these values is publication PMC4336329 (PLoS ONE, 2015).
